Hit rate of the full screen: of about 350,000 compounds, about 31,000 (8.9%) were called active. Inconclusive means that the source gave no clear call. Such entries were picked first, then a sample of the others. Calls come from the whole dose curve; as a rule, active = well fitted inhibition curve with a large enough effect; inconclusive = small, poorly fitted or top-dose-only effect; inactive = no such curve, though single readings can be large or run the other way. Where the call is inconclusive, the potency comes from a doubtful curve fit.
The molecules below were run against Histone-lysine N-methyltransferase EHMT2 (Homo sapiens) (UniProt Q96KQ7) (assay: qHTS Assay for Inhibitors of Histone Lysine Methyltransferase G9a). Settings: G9a H3K9 monomethylation, AlphaScreen, 2 h; activity, negative = inhibition: at 59 µM (top of the series) unless noted.
UniProt Q96KQ7, sequence (Q96KQ7 whole entry, looked up): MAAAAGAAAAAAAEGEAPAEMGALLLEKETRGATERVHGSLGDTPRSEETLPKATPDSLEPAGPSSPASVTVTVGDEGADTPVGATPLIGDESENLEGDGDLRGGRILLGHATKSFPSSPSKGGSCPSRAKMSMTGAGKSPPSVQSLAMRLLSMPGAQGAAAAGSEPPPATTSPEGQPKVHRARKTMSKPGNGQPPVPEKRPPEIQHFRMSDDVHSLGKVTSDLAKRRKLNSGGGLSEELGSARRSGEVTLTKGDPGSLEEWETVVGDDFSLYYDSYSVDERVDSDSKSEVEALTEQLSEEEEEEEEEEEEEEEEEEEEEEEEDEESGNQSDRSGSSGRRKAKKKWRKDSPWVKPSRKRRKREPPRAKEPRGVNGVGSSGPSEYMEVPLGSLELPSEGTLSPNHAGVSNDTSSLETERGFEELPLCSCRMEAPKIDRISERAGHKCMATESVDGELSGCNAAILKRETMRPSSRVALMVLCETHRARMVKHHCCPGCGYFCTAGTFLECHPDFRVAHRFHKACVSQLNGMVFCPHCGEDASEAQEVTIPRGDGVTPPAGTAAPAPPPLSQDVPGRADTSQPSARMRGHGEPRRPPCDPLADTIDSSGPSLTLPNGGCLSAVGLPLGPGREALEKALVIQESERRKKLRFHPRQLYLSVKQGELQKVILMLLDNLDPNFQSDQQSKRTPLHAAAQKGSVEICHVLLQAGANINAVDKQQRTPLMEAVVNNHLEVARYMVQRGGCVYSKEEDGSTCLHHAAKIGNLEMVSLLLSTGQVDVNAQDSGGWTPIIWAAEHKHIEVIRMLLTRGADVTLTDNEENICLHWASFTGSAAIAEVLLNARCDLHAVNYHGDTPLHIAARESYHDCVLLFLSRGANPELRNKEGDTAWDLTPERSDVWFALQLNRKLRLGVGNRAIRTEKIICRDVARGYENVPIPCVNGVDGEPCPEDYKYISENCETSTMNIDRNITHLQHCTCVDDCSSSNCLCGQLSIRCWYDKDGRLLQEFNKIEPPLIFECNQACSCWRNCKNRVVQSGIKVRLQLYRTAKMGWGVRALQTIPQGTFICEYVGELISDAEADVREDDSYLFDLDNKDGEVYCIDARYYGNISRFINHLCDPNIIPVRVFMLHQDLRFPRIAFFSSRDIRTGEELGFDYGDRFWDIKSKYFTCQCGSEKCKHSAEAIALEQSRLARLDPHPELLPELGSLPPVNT
Method in brief: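 Using a bead-based AlphaScreen, monomethylated H3K9 product from 2 h room-temperature reactions (G9a 20 nM, peptide 500 nM, SAM 20 uM) was detected with 0.5 ug/mL rabbit anti-H3K9me1 antibody.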
For `CC(C)Oc1nc(-c2ccccc2O)nc2ccccc12`, the “activity, negative = inhibition” value was inactive: 53.2% [at 102 µM].
For `Cc1cc(C)n(-c2nncc(-c3ccccc3)n2)n1`, the Potency was inconclusive: 79.4 µM [inhibitor, single point].
In the case of `CN1CCN(c2ccc(NC(=O)COc3ccccc3Cl)cc2)CC1`, the activity, negative = inhibition is reported as inconclusive: -60.1% [inhibitor].
`CC(C)Oc1ccc(C(=O)NCCCNC(=O)c2cccnc2)cc1` was tested, and the “activity, negative = inhibition” value was inactive: 12.5% [at 102 µM].
For `CC(C)(C)c1ccc(S(=O)(=O)N2CCN(Cc3noc(CCC(=O)N4CCCCC4)n3)CC2)cc1`, the Potency was inconclusive: 7.08 µM [inhibitor, partial curve, poor fit].
For `CC(C)=NNc1nc(-c2ccc(N3C(=O)CCC3=O)cc2)cs1`, the Potency was inconclusive: 50.1 µM [inhibitor, partial curve].
In the case of `CC1CCN(CCCN2C(=O)C3C(C(=O)Nc4cccc(Cl)c4)C4C=CC3(O4)C2C(=O)NC2CCCCC2)CC1` (configuration not stated), the Potency is reported as inconclusive: 89.1 µM [inhibitor, single point].
`CCN(CC)S(=O)(=O)c1ccc(-c2cn3ccc(C)cc3n2)cc1` was tested, and the activity, negative = inhibition was inactive: 4.83% [at 0.501 µM].
In the case of `Cc1ccc(-c2nnc(SCC#N)n2N)cc1`, the Potency is reported as inconclusive: 10 µM [inhibitor, partial curve].
`CC(C)(C)c1cc(Cl)ccc1OCCOCCN1CCCC1` was tested, and the Potency was active: 25.1 µM.
With `COc1ccc(-c2nc(CSc3nncn4c3cc3sccc34)c(C)o2)cc1OC` the “activity, negative = inhibition” value was inactive: -45.9%.
With `O=C(CN1C(=O)CCc2cc(S(=O)(=O)N3CCOCC3)ccc21)NCc1ccccc1` the “activity, negative = inhibition” value was inactive: 26%.
For `Cc1cc(C)n(/N=C/c2ccccc2O)c(=O)c1`, the Potency was active: 15.8 µM.
With `Cc1ccc(-c2nc3sc(CCNC(=O)c4ccc(C)c(C)c4)c(C)n3n2)cc1` the Potency was inconclusive: 3.55 µM [inhibitor, partial curve, poor fit].
`CC(=O)c1ccc(NC(=S)Nc2ccc3cn[nH]c3c2)cc1` was tested, and the Potency was active: 44.7 µM.
`O=C(CN1CCN(S(=O)(=O)c2ccc(Br)cc2)CC1)N/N=C/c1ccc(Cl)c([N+](=O)[O-])c1` was tested, and the Potency was inconclusive: 20 µM [inhibitor, single point].
For `O=C1c2sc3nc4c(c(=O)n3c2C(=O)N1c1ccccc1)CCC4`, the Potency was inconclusive: 44.7 µM [inhibitor, single point].
`CCOC(=O)C1(Cc2cccc(Cl)c2)CCCN(C(=O)c2c(CC)noc2C)C1` (configuration not stated) was tested, and the Potency was inconclusive: 39.8 µM [inhibitor, single point].
In the case of `CCOc1ccccc1NC(=O)C(=O)N/N=C/c1ccc([N+](=O)[O-])cc1`, the “activity, negative = inhibition” value is reported as inactive: -0.689% [at 102 µM].
`CCOC(=O)C1C(c2ccc(OC)c(OC)c2)c2c([nH][nH]c2=O)CC1(C)O` (configuration not stated) was tested, and the Potency was inconclusive: 56.2 µM [inhibitor, single point].
In the case of `COc1ccc(C(=O)n2nc(-c3ccco3)nc2NCc2cccs2)cc1OC`, the Potency is reported as inconclusive: 11.2 µM [inhibitor, partial curve, poor fit].
For `CCc1ccc(NC(=O)CSC2=Nc3ccccc3C3=NC(CCC(=O)NCc4ccco4)C(=O)N23)cc1` (configuration not stated), the “activity, negative = inhibition” value was inactive: -1.61%.
For `COc1ccc(/C=N\Nc2ccccn2)c(OC)c1`, the “activity, negative = inhibition” value was inactive: -0.112%.
In the case of `O=[N+]([O-])c1ccccc1/C=N/n1c(C(F)(F)F)n[nH]c1=S`, the Potency is reported as active: 1.41 µM.
In the case of `CCc1nc(Nc2ccc(F)cc2)c2oc3ccccc3c2n1`, the Potency is reported as active: 44.7 µM.
With `CCCCn1c(N)c(N(CCOC)C(=O)C(C)Oc2ccc(Cl)cc2)c(=O)[nH]c1=O` (configuration not stated) the Potency was inconclusive: 70.8 µM [inhibitor, partial curve, poor fit].
`Cc1cc(C)n2nc(C(=O)N3CCOCC3)nc2n1` was tested, and the “activity, negative = inhibition” value was inactive: -30.5%.
In the case of `O=C(COC(=O)c1ccc([N+](=O)[O-])cc1Cl)Nc1cccnc1Cl`, the Potency is reported as inconclusive: 56.2 µM [inhibitor, partial curve, poor fit].
For `CCN(CC)C(=O)Cn1c(C)c(/C=C/c2cc[n+](C)cc2)c2ccccc21`, the Potency was inconclusive: 89.1 µM [inhibitor, single point].
With `Cc1cnc(C(=O)OCC(=O)c2cc(C)n(C)c2C)cn1` the Potency was inconclusive: 89.1 µM [inhibitor, single point].
For `COc1cc(NC(=O)c2cc3c(Cl)nc4ccccc4c3s2)cc(OC)c1OC`, the Potency was inconclusive: 1.26 µM [inhibitor, partial curve, poor fit].
With `OCC1NCC(O)C(O)C1O` (configuration not stated) the Potency was “inactive”.
For `CCCC(=O)c1cc(-c2nc3ccccc3n2C)n(C)c1`, the Potency was inconclusive: 50.1 µM [inhibitor, partial curve].
With `O=Cc1c[nH]c2cccc(OCc3ccccc3)c12` the activity, negative = inhibition was inactive: 6.27% [at 0.501 µM].
In the case of `COc1cc(NC(=O)c2ccccc2)c(OC)cc1NC(=O)CN1C(=O)NC2(CCCCC2C)C1=O` (configuration not stated), the Potency is reported as inconclusive: 8.91 µM [inhibitor, partial curve, poor fit].
In the case of `O=C(CN(C(=O)c1csnn1)c1ccccc1Cl)NC1CCCCC1`, the “activity, negative = inhibition” value is reported as inactive: -6.14% [at 102 µM].
For `COc1ccc(NC(=O)CC2C(=O)N(c3cccc(C)c3)C(=O)N2C2CCCCC2)cc1` (configuration not stated), the Potency was “inactive”.
In the case of `CC(C)(C)C(=O)C(Cl)C(=O)Nc1ccccc1` (configuration not stated), the activity, negative = inhibition is reported as inconclusive: -69.1% [inhibitor].
For `COc1ccccc1C(=O)Nc1nnc(-c2ccc(F)cc2)o1`, the Potency was inconclusive: 89.1 µM [inhibitor, single point].
With `CCOc1ccc(-c2ccc(NS(=O)(=O)c3cc([N+](=O)[O-])c(C)c([N+](=O)[O-])c3)cc2)nn1` the Potency was inconclusive: 89.1 µM [inhibitor, single point].
For `CC(NC(=O)[C@H](NC(=O)[C@@H]1Cc2ccccc2CN1)c1ccccc1)c1ccccc1` (some centres not stated), the Potency was inconclusive: 56.2 µM [inhibitor, partial curve, poor fit].
In the case of `C=CCNC(=O)/C(=C\c1ccco1)NC(=O)c1ccco1`, the “activity, negative = inhibition” value is reported as inactive: 15.4%.
In the case of `COc1ccc(Cc2nnc(SCC(=O)c3ccc4c(c3)NC(=O)CO4)o2)cc1`, the “activity, negative = inhibition” value is reported as inactive: -44% [at 102 µM].
With `CC(=O)NC(=S)NNC(=O)CCc1ccccc1` the Potency was active: 8.91 µM.
For `CC(C)c1ccc(S(=O)(=O)c2nnn3c2nc(N2CCCCC2)c2sccc23)cc1`, the “activity, negative = inhibition” value was inactive: -2.52%.
In the case of `Cc1ccc(NC(=S)Nc2ccc3[nH]c(=O)[nH]c3c2)cc1`, the Potency is reported as active: 50.1 µM.
`CC(C)CCNC(=O)C(=O)Nc1ccccc1` was tested, and the “activity, negative = inhibition” value was inactive: -36.3% [at 102 µM].
With `COc1ccc(/C(C)=N/N=C(\C)c2ccc(OC)cc2OC)c(OC)c1` the “activity, negative = inhibition” value was inactive: 9.15%.
For `COc1cccc(Nc2sc(C(=O)c3ccc(F)cc3)c(N)c2C(=O)NCc2ccc(Cl)cc2)c1`, the Potency was inconclusive: 17.8 µM [inhibitor, single point].
For `Cc1nn(Cc2ccccc2)c(C)c1C(=O)N1CCN(CC(=O)Nc2ccc(F)cc2)CC1`, the Potency was inconclusive: 3.16 µM [inhibitor, single point].
With `Cc1cc(=O)oc2ccc(OCC(=O)NCc3ccco3)cc12` the “activity, negative = inhibition” value was inactive: -8.21%.
For `CCOc1ccc(CCNC(=O)Cc2nn[nH]n2)cc1OCC`, the Potency was inconclusive: 0.794 µM [inhibitor, partial curve, poor fit].
For `CSc1nsc(SC)c1C(=O)N1CCN(S(=O)(=O)c2ccc(C)cc2)C1C(C)C` (configuration not stated), the Potency was inconclusive: 25.1 µM [inhibitor, single point].
With `COc1ccc(NC(=O)CSc2nnc(NC(=O)Nc3ccc(OC)cc3)s2)cc1` the Potency was inconclusive: 1.58 µM [inhibitor, partial curve, poor fit].
For `CCN(CCCNC(=O)CN1N=C(c2ccc(OC)cc2)CCC1=O)c1cccc(C)c1`, the Potency was active: 11.2 µM.
For `CCOc1ccc(CN2CCNC(=O)C2CC(=O)NCCCOc2cccnc2)cc1` (configuration not stated), the Potency was inconclusive: 89.1 µM [inhibitor, single point].
In the case of `CCOC(=O)c1oc2nc(C(C)C)c3c(c2c1N)CCC3`, the Potency is reported as inconclusive: 2.51 µM [inhibitor, partial curve, poor fit].
`Cc1cccc(N2CSC3=C(C#N)C(c4ccc(C)o4)CC(=O)N3C2)c1` (configuration not stated) was tested, and the Potency was active: 3.55 µM.
For `Cc1cccc2nc(CSc3ccc(Cl)cc3)cn12`, the activity, negative = inhibition was inconclusive: -89.8% [inhibitor].
In the case of `CCOC(=O)C1CCCN(C(=O)c2cc3c(=O)[nH]c4ccc(C)cc4c3s2)C1` (configuration not stated), the Potency is reported as inconclusive: 39.8 µM [inhibitor, single point].
With `CN(C)c1ccc(/C=N/NC(=S)NCc2ccco2)cc1` the “activity, negative = inhibition” value was inactive: -14.5%.
For `NC(=O)SCC(=O)Nc1ccc(Cl)cc1`, the activity, negative = inhibition was inactive: 1.24% [at 12.7 µM].
In the case of `O=S(=O)(NCCCCCNS(=O)(=O)c1ccccc1)c1ccccc1`, the Potency is reported as inconclusive: 3.55 µM [inhibitor, partial curve, poor fit].
With `Cc1nc(SCC(=O)NC(=O)NCc2ccccc2)nc(C)c1C` the Potency was inconclusive: 44.7 µM [inhibitor, partial curve].
`COc1ccc(CC(=O)Oc2ccc(C(C)(C)C)cc2)cc1S(=O)(=O)N1CCOCC1` was tested, and the Potency was inconclusive: 79.4 µM [inhibitor, partial curve, poor fit].
With `COc1ccc(C(=O)NC(=S)NNC(=O)c2cnccn2)cc1OC` the Potency was active: 20 µM.
In the case of `CCCCN1CC2([N+](=O)[O-])C=CC(=O)C([N+](=O)[O-])(C1)C2CC(=O)c1ccccc1` (configuration not stated), the Potency is reported as active: 44.7 µM.
In the case of `Cc1ccc(NS(=O)(=O)c2c(C)[nH]c(=O)[nH]c2=O)c(C)c1`, the Potency is reported as “inactive”.
For `CCCCCN(C(=O)CCC(=O)OCC(=O)N(CC)C1CCCCC1)c1c(N)n(CCCC)c(=O)[nH]c1=O`, the “activity, negative = inhibition” value was inactive: -26.3% [at 102 µM].
With `O=C(CSc1ncn[nH]1)N1N=C(c2ccc(Cl)cc2)CC1c1ccco1` (configuration not stated) the Potency was inconclusive: 89.1 µM [inhibitor, single point].
With `Cc1ccc(C(=O)Oc2cccnc2)cc1[N+](=O)[O-]` the Potency was inconclusive: 22.4 µM [inhibitor, single point].
For `Cc1cccc(N2CCN(C(=O)c3cn(CC(C)C)c(=O)c4c3c3ccccc3n4C)CC2)c1C`, the “activity, negative = inhibition” value was inactive: 6.78%.

— PubChem BioAssay AID504332 (National Center for Advancing Translational Sciences (NCATS), 2011)
% is set by controls: 0 for no effect and ±100 for the full control effect; potency is the fitted concentration of half-maximal effect; tags give direction and shape of the fitted curve.
Note: nearly all actives have a fitted effect of over 75% in size.
